Measured values published in PubChem BioAssay (NCATS).
“And” between values parts separate entries of the source, which are not always exact repeats. Equal entries are not always repeated. This list was built around the results that the source calls inconclusive (neither active nor inactive); the mix of calls is not that of the screen. For some assays here: Potencies of inconclusive entries are doubtful fits and often do not repeat. For some assays here: “Side channel” marks fits to a control or component signal instead of the main read-out. The source made the active and inactive calls. Unless noted, the call rests on the fitted dose curve; in most records, active means well fitted curve in the direction sought with a large enough effect; inconclusive means small, poorly fitted or top-dose-only effect, or another doubt; inactive means no such curve, though single readings can be large; an effect the other way counts as inactive or inconclusive.

How the values were obtained:
[1] = target: Rap guanine nucleotide exchange factor 3 (Homo sapiens) (UniProt O95398); test: Confirmatory qHTS for antagonist of cAMP-regulated guanine nucleotide exchange factor 3 (EPAC1) (AID 1645880); settings: EPAC1 Rap1B-BODIPY-GDP exchange, fluorescence; series mostly up to 115 µM; further: potency means the concentration at half of the fitted maximal effect; nearly all actives have a fitted effect of over 55% in size
UniProt O95398, sequence (O95398 whole entry, looked up): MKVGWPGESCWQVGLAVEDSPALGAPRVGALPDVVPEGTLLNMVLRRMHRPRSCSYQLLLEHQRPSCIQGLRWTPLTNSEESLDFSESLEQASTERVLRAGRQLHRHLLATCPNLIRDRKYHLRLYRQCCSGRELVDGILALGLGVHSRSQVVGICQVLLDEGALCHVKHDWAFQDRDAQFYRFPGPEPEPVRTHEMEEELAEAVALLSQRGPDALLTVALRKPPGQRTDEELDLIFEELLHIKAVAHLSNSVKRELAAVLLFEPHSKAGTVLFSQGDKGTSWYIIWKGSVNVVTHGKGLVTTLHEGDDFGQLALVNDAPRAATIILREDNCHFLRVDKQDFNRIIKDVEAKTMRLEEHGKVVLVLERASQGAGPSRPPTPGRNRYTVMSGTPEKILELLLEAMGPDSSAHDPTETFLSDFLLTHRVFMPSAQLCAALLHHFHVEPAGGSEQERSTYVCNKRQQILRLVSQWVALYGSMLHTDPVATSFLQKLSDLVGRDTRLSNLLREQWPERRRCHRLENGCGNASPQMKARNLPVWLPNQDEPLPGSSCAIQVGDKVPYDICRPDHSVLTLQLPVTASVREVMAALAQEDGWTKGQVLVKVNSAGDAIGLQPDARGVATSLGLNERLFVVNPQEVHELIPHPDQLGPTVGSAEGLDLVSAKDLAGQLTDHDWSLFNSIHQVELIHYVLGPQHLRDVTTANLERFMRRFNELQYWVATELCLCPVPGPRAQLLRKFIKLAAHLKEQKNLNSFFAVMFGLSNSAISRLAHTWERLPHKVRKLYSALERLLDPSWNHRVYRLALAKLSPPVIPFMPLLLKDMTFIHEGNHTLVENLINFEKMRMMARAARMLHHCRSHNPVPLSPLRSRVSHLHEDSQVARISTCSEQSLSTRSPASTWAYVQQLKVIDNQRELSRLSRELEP
In short: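 Nucleotide exchange uses 100 nM EPAC1, 250 nM RAP1B-BODIPY-GDP and 50 uM GDP, with compounds in a concentration-titration series. After 5 min at room temperature, fluorescence (480 nm ex/540 nm em) is read every 5 min for 30 min. Data are normalized to control ATA and DMSO.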

[2] = target: Rap guanine nucleotide exchange factor 3 (Homo sapiens) (UniProt O95398); test: Confirmatory qHTS for agonist of cAMP-regulated guanine nucleotide exchange factor 3 (EPAC1) (AID 1645881); settings: EPAC1 Rap1B BODIPY-GDP exchange fluorescence; series mostly up to 154 µM;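 further: EPAC1 catalysed release of BODIPY-GDP from Rap1B seen as fluorescence loss; 100% = effect of cAMP agonist control; nearly all actives have a fitted effect of over 75% in size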
[3] = target: Rap guanine nucleotide exchange factor 4 (Homo sapiens) (UniProt Q8WZA2); test: Confirmatory qHTS for antagonist of cAMP-regulated guanine nucleotide exchange factor 4 (EPAC2) (AID 1645885); settings: EPAC2 Rap1B-BODIPY-GDP exchange fluorescence, biochemical; series mostly up to 114 µM; further: potency means the concentration at half of the fitted maximal effect; nearly all actives have a fitted effect of over 25% in size
UniProt Q8WZA2, sequence (Q8WZA2 whole entry, looked up): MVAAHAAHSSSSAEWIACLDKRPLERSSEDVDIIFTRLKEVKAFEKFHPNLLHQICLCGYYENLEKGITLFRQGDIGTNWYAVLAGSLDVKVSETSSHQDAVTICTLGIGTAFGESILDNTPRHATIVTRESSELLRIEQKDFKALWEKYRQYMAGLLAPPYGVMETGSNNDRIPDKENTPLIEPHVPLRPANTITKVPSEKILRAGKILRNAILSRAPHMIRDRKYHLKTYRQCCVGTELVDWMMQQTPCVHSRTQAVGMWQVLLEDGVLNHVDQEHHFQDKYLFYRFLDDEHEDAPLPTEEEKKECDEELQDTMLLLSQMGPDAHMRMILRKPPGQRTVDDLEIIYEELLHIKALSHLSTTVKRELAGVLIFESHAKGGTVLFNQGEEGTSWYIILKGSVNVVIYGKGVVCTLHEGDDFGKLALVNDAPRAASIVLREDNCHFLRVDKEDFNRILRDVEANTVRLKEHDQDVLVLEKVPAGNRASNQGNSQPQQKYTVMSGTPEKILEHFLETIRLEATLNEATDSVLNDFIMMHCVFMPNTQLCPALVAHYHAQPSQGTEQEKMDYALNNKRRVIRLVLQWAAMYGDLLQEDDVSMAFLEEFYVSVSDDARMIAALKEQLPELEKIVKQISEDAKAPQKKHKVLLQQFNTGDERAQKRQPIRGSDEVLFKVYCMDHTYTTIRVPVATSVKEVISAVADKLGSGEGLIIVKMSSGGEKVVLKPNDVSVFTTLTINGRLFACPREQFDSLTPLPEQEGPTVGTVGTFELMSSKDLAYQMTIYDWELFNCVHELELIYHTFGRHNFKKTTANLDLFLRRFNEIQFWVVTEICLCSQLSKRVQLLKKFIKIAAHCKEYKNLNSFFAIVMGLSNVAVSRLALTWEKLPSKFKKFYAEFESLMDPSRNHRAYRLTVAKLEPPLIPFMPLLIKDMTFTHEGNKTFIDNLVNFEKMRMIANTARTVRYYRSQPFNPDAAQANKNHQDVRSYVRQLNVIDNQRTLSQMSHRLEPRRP

[4] = target: Rap guanine nucleotide exchange factor 3 (Homo sapiens) (UniProt O95398); test: Counterscreen qHTS for agonist of cAMP-regulated guanine nucleotide exchange factor 3 (EPAC1) (AID 1645889); settings: EPAC1 Rap1B-BODIPY-GDP exchange, fluorescence; activation: at 154 µM (top of the series); further: % of control where 0% means no effect; nearly all actives have a fitted effect of over 40% in size
In short: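 Measured: fluorescence of BODIPY-GDP bound to Rap1B, which falls as exchange proceeds. Conditions include 50 uM competing GDP, 5 and 30 min reads, and a later cAMP challenge for antagonist detection.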

7G8 = test: qHTS profiling for inhibitors of Plasmodium falciparum proliferation (AID 504749); further: nearly all actives have a fitted effect of over 60% in size; further: potency means the concentration at half of the fitted maximal effect; settings: P. falciparum in erythrocytes, SYBR Green DNA, 72 h; series mostly up to 28.7 µM
In short: (§1)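 P. falciparum-infected erythrocytes (0.3% parasitemia, 2.5% hematocrit final) were exposed to compounds for 72 h at 37 C in 5% CO2, then lysed with SYBR Green buffer overnight at room temperature; parasite DNA fluorescence was normalized to artemisinin and DMSO controls.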

CP201 = test: as above; settings: P. falciparum in erythrocytes, SYBR Green DNA, 72 h; series mostly up to 28.7 µM
In short: as §1

CP266 = test: as above; settings: P. falciparum in erythrocytes, SYBR Green DNA, 72 h; series mostly up to 28.7 µM
In short: as §1

DFO2036 = test: as above; settings: P. falciparum in erythrocytes, SYBR Green DNA, 72 h; series mostly up to 28.7 µM
In short: as §1

ECU = test: as above; settings: P. falciparum in erythrocytes, SYBR Green DNA, 72 h; series mostly up to 28.7 µM
In short: as §1

[5] = NCATS anti-infectives library activity on HEK293 viability as a counter-qHTS vs the C. elegans viability qHTS (AID 1745854); settings: HEK293 viability counter-screen; series mostly up to 41.8 µM;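 further: HEK293 cells exposed to compounds for 24 hr before the viability read; on the % scale 0 is the no-effect control and ±100 the full control effect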
In short: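 Cytotoxicity in human HEK293 cells is measured by ATP-dependent CellTiter-Glo luminescence following a 24 hr incubation with titrated library compounds at 37C. Top final concentration is 41.7 uM.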

[6] = system: Nanoluciferase (engineered Oplophorus gracilirostris luciferase); test: Primary Nanoluciferase (NLuc) qHTS assay for identification of artifact compounds. (AID 1845222); settings: NLuc-conditioned medium, Nano-Glo luminescence, 5 min; series mostly up to 54.1 µM; further: potency means the concentration at half of the fitted maximal effect
In short: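 Luminescence read-out of secreted NLuc in S16 cell conditioned medium (1:55); compounds tested with 15 min RT preincubation, then Nano-Glo substrate 1:100, 5 min. % inhibition vs no-enzyme and DMSO controls, 4-parameter Hill fit.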

[7] = target: Tyrosine-protein phosphatase non-receptor type substrate 1 (Homo sapiens) + Leukocyte surface antigen CD47 (Homo sapiens) (UniProt P78324+Q08722); test: CD47-SIRPalpha protein protein interaction - LANCE assay qHTS validation (AID 1347057; active means well fitted curve in the direction sought with a large enough effect in the signal ratio, with a control signal flat, not every such curve was filed as active; inconclusive means small, poorly fitted or top-dose-only effect, or effect the other way, or a change in a side signal; inactive means no such curve, though single readings can be large or run the other way; the % refers to the signal ratio; further: potency means the concentration at half of the fitted maximal effect); settings: Recombinant CD47-His / biotin-SIRPalpha, TR-FRET ratio; series mostly up to 38.3 µM
UniProt P78324, sequence (P78324 whole entry, looked up): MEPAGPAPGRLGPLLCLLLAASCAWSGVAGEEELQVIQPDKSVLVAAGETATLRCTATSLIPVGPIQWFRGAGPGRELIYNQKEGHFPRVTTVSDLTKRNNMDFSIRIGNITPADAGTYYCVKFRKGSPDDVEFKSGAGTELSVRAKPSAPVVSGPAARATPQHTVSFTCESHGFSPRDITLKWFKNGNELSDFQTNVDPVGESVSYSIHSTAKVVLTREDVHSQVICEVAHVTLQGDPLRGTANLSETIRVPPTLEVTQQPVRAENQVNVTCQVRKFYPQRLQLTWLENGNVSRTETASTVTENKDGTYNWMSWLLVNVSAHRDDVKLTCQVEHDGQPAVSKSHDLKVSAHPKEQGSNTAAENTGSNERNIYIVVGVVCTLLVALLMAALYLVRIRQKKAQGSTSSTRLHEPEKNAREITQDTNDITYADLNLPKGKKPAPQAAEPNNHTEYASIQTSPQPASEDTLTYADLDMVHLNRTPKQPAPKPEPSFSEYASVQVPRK
UniProt P78324, sequence (Q08722 whole entry, looked up): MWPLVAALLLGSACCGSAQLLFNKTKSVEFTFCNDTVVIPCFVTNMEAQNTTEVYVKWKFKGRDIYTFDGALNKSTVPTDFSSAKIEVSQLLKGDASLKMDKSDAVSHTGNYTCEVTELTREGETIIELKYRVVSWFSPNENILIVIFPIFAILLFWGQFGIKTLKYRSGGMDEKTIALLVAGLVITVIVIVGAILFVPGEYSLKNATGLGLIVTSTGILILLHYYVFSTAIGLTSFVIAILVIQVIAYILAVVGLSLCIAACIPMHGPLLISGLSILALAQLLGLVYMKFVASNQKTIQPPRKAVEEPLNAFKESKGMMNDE
In short: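 First, His-tagged CD47 and Eu-labelled anti-His antibody met the compound for 30 min; next, site-specifically biotinylated SIRPalpha was added for 30 min; finally streptavidin-APC was added before reading the TR-FRET ratio.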

[8] = qHTS of pediatric cancer cell lines to identify multiple opportunities for drug repurposing: Primary screen for TC32 cells (AID 1347089); settings: TC32 Ewing sarcoma viability, CellTiter-Glo luminescence, 48 h; series mostly up to 45.8 µM; further: potency means the concentration at half of the fitted maximal effect; nearly all actives have a fitted effect of over 60% in size
In short: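 TC32 cells, 500-1,000/well in growth medium, compound-treated 48 h at 37 °C; viability from CellTiter-Glo luminescence. Primary screen: MIPE 11-point (0.78 nM–46 µM final), NPC 8-point (0.59 nM–46 µM final); confirmatory at 11-point dilutions.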

Papain (Carica papaya) = Papain (Carica papaya) (UniProt P00784); test: Primary qHTS assay for inhibitors of the protease papain (AID 1645873); settings: papain Z-FR-AMC cleavage, AMC fluorescence; series mostly up to 49.8 µM;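 further: papain turnover of Z-FR-AMC read as the AMC fluorescence gain over 10 min; potency means the concentration at half of the fitted maximal effect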
UniProt P00784, sequence (P00784 whole entry, looked up): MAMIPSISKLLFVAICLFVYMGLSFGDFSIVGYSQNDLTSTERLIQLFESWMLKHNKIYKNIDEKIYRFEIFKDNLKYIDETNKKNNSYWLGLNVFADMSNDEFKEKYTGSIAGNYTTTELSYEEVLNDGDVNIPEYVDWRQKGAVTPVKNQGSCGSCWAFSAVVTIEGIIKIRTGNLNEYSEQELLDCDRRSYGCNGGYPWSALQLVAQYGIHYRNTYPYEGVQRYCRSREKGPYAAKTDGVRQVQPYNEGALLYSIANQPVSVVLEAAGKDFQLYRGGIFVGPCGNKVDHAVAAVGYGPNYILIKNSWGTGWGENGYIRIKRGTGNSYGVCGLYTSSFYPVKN

[9] = Quantitative High-Throughput drug screen in 47 multiple myeloma cell lines against the NCATS MIPE library collection: EJM_DSMZ cell viability assay (AID 1918926; further: potency means the concentration at half of the fitted maximal effect; nearly all actives have a fitted effect of over 30% in size); settings: EJM myeloma cell viability, CellTiter-Glo ATP, 48 h; series mostly up to 45.8 µM
In short: (§2)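 Relative luminescence from CellTiter-Glo served as the viability signal, referenced to DMSO-treated (100%) and cell-free medium (0%) controls. Treatment lasted 48 hours at 37C with 500 cells per well.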

[10] = Quantitative High-Throughput drug screen in 47 multiple myeloma cell lines against the NCATS MIPE library collection: ARP1_JJKsccF8 cell viability assay (AID 1918928; further: potency means the concentration at half of the fitted maximal effect; nearly all actives have a fitted effect of over 40% in size); settings: ARP1 myeloma cells viability, CellTiter-Glo ATP, 48 h; viability: at 45.8 µM (top of the series)
In short: (§3)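 Myeloma cells, 500 per well, were exposed to MIPE 4.0 drugs by pin transfer for 48 h at 37 °C, 5% CO2. Viability was read as ATP luminescence with CellTiter-Glo, normalised to DMSO-only (100%) and medium-only (0%) wells.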

[11] = Quantitative High-Throughput drug screen in 47 multiple myeloma cell lines against the NCATS MIPE library collection: ARD_JJKsccE7 cell viability assay (AID 1918929; further: potency means the concentration at half of the fitted maximal effect); settings: ARD myeloma cell line viability, CellTiter-Glo, 48 h; series mostly up to 45.8 µM
In short: as §2

[12] = Quantitative High-Throughput drug screen in 47 multiple myeloma cell lines against the NCATS MIPE library collection: KMM1_JCRB cell viability assay (AID 1918960); settings: KMM1 myeloma viability, CellTiter-Glo ATP luminescence, 48 h; series mostly up to 45.8 µM; further: potency means the concentration at half of the fitted maximal effect; nearly all actives have a fitted effect of over 30% in size
In short: as §3

[13] = Quantitative High-Throughput drug screen in 47 multiple myeloma cell lines against the NCATS MIPE library collection: KHM11_PLB cell viability assay (AID 1918962); settings: KHM11 myeloma cell viability, CellTiter-Glo ATP luminescence, 48 h; viability, % of DMSO control: at 45.8 µM (top of the series); further: potency means the concentration at half of the fitted maximal effect; nearly all actives have a fitted effect of over 35% in size
In short: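 CellTiter-Glo luminescence (ATP) after 48 h compound exposure, 37C/5% CO2; 500 cells/well; MIPE 4.0 approved/investigational drugs pinned in; DMSO = 100%, media only = 0% viability.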

[14] = Quantitative High-Throughput drug screen in 47 multiple myeloma cell lines against the NCATS MIPE library collection: JIM1_ECACC cell viability assay (AID 1918964; further: potency means the concentration at half of the fitted maximal effect); settings: JIM1 myeloma viability, CellTiter-Glo ATP luminescence, 48 h; series mostly up to 45.8 µM
In short: as §2
Tags describe the fitted curve by direction and shape.

## O=C(Nc1ccc(Oc2ccc(Cl)cc2)c(Cl)c1)c1cc(I)cc(I)c1O
[1]
  Potency: inconclusive: 49.8 µM [inhibitor, partial curve] and active: 30.1 µM
[2]
  Potency: inactive
[3]
  Potency: inconclusive: 35 µM [inhibitor, partial curve] and inconclusive: 75.7 µM [inhibitor, partial curve]
[4]
  activation: inconclusive: 20.6% [activator]
7G8
  Potency: inconclusive: 10 µM [inhibitor, single point]
CP201
  Potency: inactive
CP266
  Potency: inactive
DFO2036
  Potency: inactive
ECU
  Potency: inconclusive: 12.6 µM [inhibitor, single point]

## O=C(Nc1ncc([N+](=O)[O-])s1)c1ccccc1O
[5]
  Potency: inactive
[6]
  Potency: inconclusive: 12 µM [inhibitor, partial curve, poor fit]

## Nc1nc(N)c(N=O)c(OCC2CCCCC2)n1
[7]
  Potency: inconclusive: 18.5 µM [side channel, falling, single point]
[8]
  Potency: inconclusive: 18.6 µM [cytotoxic, partial curve]
Papain (Carica papaya)
  Potency: inconclusive: 0.0282 µM [inhibitor, full curve]
[9]
  Potency: active: 10.5 µM
[10]
  Potency: active: 14.8 µM
[11]
  Potency: active: 5.26 µM
[12]
  Potency: active: 6.62 µM
[13]
  Potency: inconclusive: 2.96 µM [cytotoxic, full curve]
[14]
  Potency: inconclusive: 1.48 µM [cytotoxic, full curve]
